Data as given in PubChem BioAssay AID1466 (National Center for Advancing Translational Sciences (NCATS), 2008).
The campaign covered roughly 200,000 compounds. About 10 (0.005%) were called active. The shares of active, inactive and inconclusive entries below differ from those in the screen. The call rests on the fitted dose curve; in most records, active means well fitted inhibition curve with a large enough effect; inconclusive means small, poorly fitted or top-dose-only effect, or effect the other way, or another doubt; inactive means no such curve, though single readings can be large or run the other way. Potencies of inconclusive entries are left out as doubtful fits.

Target: Lysosomal alpha-glucosidase (Homo sapiens) (UniProt P10253)
Experiment: qHTS Assay for Inhibitors of Human alpha-Glucosidase as a Potential Chaperone Treatment of Pompe Disease;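 on activity change, negative = inhibition: plate controls were uninhibited enzyme wells for no effect and no-enzyme background for full effect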
Conditions: purified human GAA, 4-MU-alpha-glucoside fluorescence; activity change, negative = inhibition: at 76.9 µM (top of the series) unless noted
In short: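 Human enzyme at 4 nM with 400 uM 4-methylumbelliferyl-alpha-D-pyranoside, citrate/phosphate buffer pH 5.0, 0.005% Tween-20, 20 min at room temperature. Compounds up to 77 uM. 4-MU fluorescence (Ex 365/Em 440) read after NaOH/glycine stop; AC50 from Hill fit.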
Potency means the concentration at half of the fitted maximal effect; tags describe the fitted curve by direction and shape.

Question: Which Potency does the source give for `CN(C)c1nn(C(=O)Nc2ccc(Cl)cc2Cl)cc1-c1ccccc1` here?
Answer: Its Potency is inconclusive [inhibitor, single point].

Question: `COc1cc(Cl)ccc1NC(=O)COc1ccccc1C(=O)N1CCN(c2ccc(O)cc2)CC1` was tested. Which “activity change, negative = inhibition” value did it give?
Answer: The value was inactive: 0.763%.

Question: Which Potency does the source give for `CCOC(=O)N1CCN(C(=O)c2ccc3c(c2)ncn3C2CCCC2)CC1` here?
Answer: Its Potency is inconclusive [inhibitor, single point].

Question: With `COc1cc(NC(=O)CSc2nnnn2-c2ccccc2)cc(OC)c1OC` as the compound, how does the Potency read?
Answer: The Potency was inconclusive [activator, single point].

Question: How did the “activity change, negative = inhibition” value turn out when `COc1ccc2nc3cccc(OC)c3nc2c1` was run?
Answer: The value was inactive: -4.24%.

Question: `CCCCN1C(=O)N(C)C2C1N(C)C(=O)N2CCCC` (centres undefined) was tested. Which Potency did it give?
Answer: Its Potency is inconclusive [inhibitor, partial curve].

Question: `O=C1OCC(CO)(CO)N=C1NNc1cc(Cl)ccc1Cl` was tested. Which “activity change, negative = inhibition” value did it give?
Answer: Its value is inactive: -9.96%.

Question: How did the Potency turn out when `O=c1oc2cc(OCc3ccc(F)cc3F)ccc2cc1-c1ccccn1` was run?
Answer: The Potency was inconclusive [activator, partial curve].

Question: `COCCn1nnnc1C(c1cc2cc(OC)c(OC)cc2[nH]c1=O)N1CCN(c2ccc(O)cc2)CC1` (centres undefined) was tested. Which Potency did it give?
Answer: The Potency was inconclusive [inhibitor, single point].

Question: How did the Potency turn out when `O=C(CNC(=O)c1ccc(Cl)cc1)Nc1ccccc1C(F)(F)F` was run?
Answer: Its Potency is inconclusive [inhibitor, single point].

Question: With `O=C(c1cccs1)N1N=C(c2ccccc2)CC1c1ccc(O)cc1` (centres undefined) as the compound, how does the Potency read?
Answer: Its Potency is inconclusive [inhibitor, partial curve].

Question: With `COC(=O)c1cccc(Nc2cc(C)nc(-c3ccccc3O)n2)c1` as the compound, how does the Potency read?
Answer: The Potency was inconclusive [inhibitor, single point].

Question: Which Potency does the source give for `COc1ccc(NC(=O)c2noc(C(C)C)c2[N+](=O)[O-])cc1` here?
Answer: Its Potency is inconclusive [inhibitor, single point].

Question: With `O=c1c2[nH]c3ccc(Cl)cc3c2ncn1Cc1ccccn1` as the compound, how does the Potency read?
Answer: Its Potency is inconclusive [inhibitor, full curve].

Question: Which Potency does the source give for `Cc1cc(C(=O)Nc2cccc(S(=O)(=O)N3CCCCC3)c2)c2ccccc2n1` here?
Answer: Its Potency is inconclusive [inhibitor, single point].

Question: `CC(=O)Nc1cc(-n2cnnn2)ccc1C` was tested. Which activity change, negative = inhibition did it give?
Answer: Its activity change, negative = inhibition is inconclusive: 19% [activator].

Question: How did the Potency turn out when `NC(=O)c1ccc(NC(=S)NCc2ccco2)cc1` was run?
Answer: The Potency was inconclusive [inhibitor, partial curve].

Question: `CCc1c(C)nc2ncnn2c1NCCc1ccc(Cl)cc1` was tested. Which Potency did it give?
Answer: Its Potency is inconclusive [inhibitor, full curve, poor fit].

Question: How did the activity change, negative = inhibition turn out when `CCOc1ccc(CCNC(=O)COC(=O)c2cc(OC)cc(OC)c2)cc1OCC` was run?
Answer: The activity change, negative = inhibition was inconclusive: 15.7% [activator].
